Where a name gives a salt, the structure may show the parent alone. This is one part of the list. Most values come without repeats; read them as rough.
System: KCNR
Test: area under viability curve (10 nM-1 µM), viability relative to solvent or trametinib-only control (AUC (arbitrary, % viability x concentration range)); higher = less growth inhibition (more viable cells)
Conditions: 72 h compound exposure (96 h after seeding) h; trametinib co-treatment 0 µM
Protocol: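 Four neuroblastoma cell lines (KCNR, SKNBE, SJNB8, SKNAS) were seeded in 384-well plates. At 24 h, 1 µM trametinib or DMSO was added, followed by library compounds at 10 nM, 100 nM and 1 µM. Viability was read by MTT at 96 h and normalised to solvent-treated cells (DMSO arm) or to trametinib-only cells (trametinib arm). The area under the 3-point viability curve was computed in GraphPad Prism; units are as given (approx. 100000 = no effect).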

Row | SMILES | area under viability curve
1 | CN(C)C(=O)c1cc2cnc(Nc3ccc(N4CCNCC4)cn3)nc2n1C1CCCC1 [Ribociclib] | 76000
2 | CCNC(=O)[C@@H]1CCCN1C(=O)[C@H](CCCN=C(N)N)NC(=O)[C@H](CC(C)C)NC(=O)[C@@H](C)NC(=O)[C@H](Cc1ccc(O)cc1)NC(=O)[C@H](CO)NC(=O)[C@H](Cc1c[nH]c2ccccc12)NC(=O)[C@H](Cc1cnc[nH]1)NC(=O)[C@@H]1CCC(=O)N1 [Alarelin acetate] | 100000
3 | CC[C@]1(O)C[C@H]2CN(CCc3c([nH]c4ccccc34)[C@@](C(=O)OC)(c3cc4c(cc3OC)N(C=O)[C@H]3[C@@](O)(C(=O)OC)[C@H](OC(C)=O)[C@]5(CC)C=CCN6CC[C@]43[C@@H]65)C2)C1 [Vincristine sulfate] | 11700
4 | COc1cc([C@@H]2c3cc4c(cc3[C@@H](O[C@@H]3O[C@@H]5CO[C@@H](C)O[C@H]5[C@H](O)[C@H]3O)[C@H]3COC(=O)[C@H]23)OCO4)cc(OC)c1O [Etoposide] | 47600
5 | CC[C@@]1(O)C(=O)OCc2c1cc1n(c2=O)Cc2cc3cc(O)ccc3nc2-1 [10-Hydroxycamptothecin] | 3740
6 | O=C(CCCCCCC(=O)NO)NO [Suberoyl bis-hydroxamic acid] | 99500
7 | Nc1c(O)cc(O)cc1C=Cc1ccc(O)cc1 [Aminoresveratrol sulfate] | 94500
8 | COc1ccc(-c2ccc3c(N4CCOC[C@@H]4C)nc(N4CCOC[C@@H]4C)nc3n2)cc1CO | 50800
9 | Cc1cn(-c2cc(NC(=O)c3ccc(C)c(Nc4nccc(-c5cccnc5)n4)c3)cc(C(F)(F)F)c2)cn1 [Nilotinib] | 94500
10 | COCC[n+]1c2c(n(Cc3cnccn3)c1C)C(=O)c1ccccc1C2=O [Sepantronium bromide] | 4460
11 | Cn1cnc2c(F)c(Nc3ccc(Br)cc3Cl)c(C(=O)NOCCO)cc21 [Selumetinib] | 107000
12 | C=CC(=O)Nc1cc2c(Nc3ccc(F)c(Cl)c3)ncnc2cc1OCCCN1CCOCC1 [Canertinib 2HCl] | 102000
13 | Cc1cc(Nc2cc(N3CCN(C)CC3)nc(Sc3ccc(NC(=O)C4CC4)cc3)n2)n[nH]1 [Tozasertib] | 32000
14 | COc1cc2c(Oc3ccc(NC(=O)C4(C(=O)Nc5ccc(F)cc5)CC4)cc3F)ccnc2cc1OCCCN1CCOCC1 [Foretinib] | 69800
15 | CNNCc1ccc(C(=O)NC(C)C)cc1 [Procarbazine HCl] | 107000
16 | CC(=O)[O-].CC(=O)[O-].N.NC1CCCCC1.[Cl-].[Cl-].[Pt+4] [Satraplatin] | 51800
17 | CC(C)C[C@H](NC(=O)[C@@H](Cc1c[nH]c2ccccc12)NC(=O)[C@H](Cc1ccc(O)cc1)NC(=O)[C@H](CO)NC(=O)[C@H](Cc1c[nH]c2ccccc12)NC(=O)[C@H](Cc1cnc[nH]1)NC(=O)[C@@H]1CCC(=O)N1)C(=O)N[C@@H](CCCN=C(N)N)C(=O)N1CCC[C@H]1C(=O)NCC(N)=O [Triptorelin acetate] | 105000
18 | COc1ncc(-c2ccc3nccc(-c4ccnnc4)c3c2)cc1NS(=O)(=O)c1ccc(F)cc1F [Omipalisib] | 30700
19 | Clc1ccc(Nc2nnc(Cc3ccncc3)c3ccccc23)cc1 [Vatalanib HCl] | 101000
20 | Cc1[nH]c(/C=C2\C(=O)Nc3ccc(S(=O)(=O)N(C)c4cccc(Cl)c4)cc32)c(C)c1C(=O)N1CCN(C)CC1 | 101000

Same assay, conditions: 72 h compound exposure (96 h after seeding) h; trametinib co-treatment 1 µM

Row | SMILES | area under viability curve
21 | CN(C)C(=O)c1cc2cnc(Nc3ccc(N4CCNCC4)cn3)nc2n1C1CCCC1 [Ribociclib] | 79100
22 | CCNC(=O)[C@@H]1CCCN1C(=O)[C@H](CCCN=C(N)N)NC(=O)[C@H](CC(C)C)NC(=O)[C@@H](C)NC(=O)[C@H](Cc1ccc(O)cc1)NC(=O)[C@H](CO)NC(=O)[C@H](Cc1c[nH]c2ccccc12)NC(=O)[C@H](Cc1cnc[nH]1)NC(=O)[C@@H]1CCC(=O)N1 [Alarelin acetate] | 99800
23 | CC[C@]1(O)C[C@H]2CN(CCc3c([nH]c4ccccc34)[C@@](C(=O)OC)(c3cc4c(cc3OC)N(C=O)[C@H]3[C@@](O)(C(=O)OC)[C@H](OC(C)=O)[C@]5(CC)C=CCN6CC[C@]43[C@@H]65)C2)C1 [Vincristine sulfate] | 10700
24 | COc1cc([C@@H]2c3cc4c(cc3[C@@H](O[C@@H]3O[C@@H]5CO[C@@H](C)O[C@H]5[C@H](O)[C@H]3O)[C@H]3COC(=O)[C@H]23)OCO4)cc(OC)c1O [Etoposide] | 22700
25 | CC[C@@]1(O)C(=O)OCc2c1cc1n(c2=O)Cc2cc3cc(O)ccc3nc2-1 [10-Hydroxycamptothecin] | 3700
26 | O=C(CCCCCCC(=O)NO)NO [Suberoyl bis-hydroxamic acid] | 94700
27 | Nc1c(O)cc(O)cc1C=Cc1ccc(O)cc1 [Aminoresveratrol sulfate] | 90100
28 | COc1ccc(-c2ccc3c(N4CCOC[C@@H]4C)nc(N4CCOC[C@@H]4C)nc3n2)cc1CO | 50700
29 | Cc1cn(-c2cc(NC(=O)c3ccc(C)c(Nc4nccc(-c5cccnc5)n4)c3)cc(C(F)(F)F)c2)cn1 [Nilotinib] | 100000
30 | COCC[n+]1c2c(n(Cc3cnccn3)c1C)C(=O)c1ccccc1C2=O [Sepantronium bromide] | 2510
31 | Cn1cnc2c(F)c(Nc3ccc(Br)cc3Cl)c(C(=O)NOCCO)cc21 [Selumetinib] | 99600
32 | C=CC(=O)Nc1cc2c(Nc3ccc(F)c(Cl)c3)ncnc2cc1OCCCN1CCOCC1 [Canertinib 2HCl] | 97500
33 | Cc1cc(Nc2cc(N3CCN(C)CC3)nc(Sc3ccc(NC(=O)C4CC4)cc3)n2)n[nH]1 [Tozasertib] | 38500
34 | COc1cc2c(Oc3ccc(NC(=O)C4(C(=O)Nc5ccc(F)cc5)CC4)cc3F)ccnc2cc1OCCCN1CCOCC1 [Foretinib] | 67400
35 | CNNCc1ccc(C(=O)NC(C)C)cc1 [Procarbazine HCl] | 94300
36 | CC(=O)[O-].CC(=O)[O-].N.NC1CCCCC1.[Cl-].[Cl-].[Pt+4] [Satraplatin] | 43200
37 | CC(C)C[C@H](NC(=O)[C@@H](Cc1c[nH]c2ccccc12)NC(=O)[C@H](Cc1ccc(O)cc1)NC(=O)[C@H](CO)NC(=O)[C@H](Cc1c[nH]c2ccccc12)NC(=O)[C@H](Cc1cnc[nH]1)NC(=O)[C@@H]1CCC(=O)N1)C(=O)N[C@@H](CCCN=C(N)N)C(=O)N1CCC[C@H]1C(=O)NCC(N)=O [Triptorelin acetate] | 97500
38 | COc1ncc(-c2ccc3nccc(-c4ccnnc4)c3c2)cc1NS(=O)(=O)c1ccc(F)cc1F [Omipalisib] | 21200
39 | Clc1ccc(Nc2nnc(Cc3ccncc3)c3ccccc23)cc1 [Vatalanib HCl] | 99900
40 | Cc1[nH]c(/C=C2\C(=O)Nc3ccc(S(=O)(=O)N(C)c4cccc(Cl)c4)cc32)c(C)c1C(=O)N1CCN(C)CC1 | 100000
